± gives the standard deviation of the averaged measurements. The list shows a part of the results.
Tested on: PfAP2-I AP2 domain 3 (GST-tagged)
Assay: gcPBM binding intensity (ln(normalized median fluorescence intensity)); higher = stronger DNA binding
How it was run: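 Probes on an Agilent 4 × 180k array were primer-extended, double-stranded and 36 bp long, taken from intergenic genomic regions, with negative controls added. GST-tagged P. falciparum DNA-binding domains from E. coli, about 25 μg on average, were applied to the array for 1 h in 1× PBS containing 1% milk, 0.2 mg/ml BSA, 0.5% salmon testes DNA and 0.03% Triton X-100. Binding intensity, obtained after Alexa488 anti-GST antibody detection and a 488 nm scan, is the highest Masliner-normalised natural-log median intensity across replicate spots of either probe orientation.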

Sequence | gcPBM binding intensity (ln)
AAATAAAAAAAAATAGCACACATAAATATATTATAT [CACACA_site8155] | 8.04 ± 0.54
TATATATATATTATATGTACACAAGGAAATATGCAT [XGTACX_site5637] | 8.73 ± 0.2
TATGTATAATTATTTTGTACTTATTAAATTTTTTTT [XGTACX_site5413] | 7.43 ± 0.23
ATCTATGAAAAAGGTACATGCAATAAAGAAACATAT [TGCATGCA_site805] | 8.35 ± 0.78
TTATAATCAATGAATACACACATATATTTCATTAAT [CACACA_site5909] | 7.51 ± 0.52
TAATAATAGAGACACACACACATAGACATATAAATA [CACACA_site6729] | 7.78 ± 0.51
TTATACTATTTTTATACATGCATTTCTATATATTTT [TGCATGCA_site316] | 8.57 ± 0.82
TTCAAAATAAAAAATTCACACACATATATATATATA [CACACA_site8653] | 9.28 ± 0.39
CTAAAATACGGACACACACACACATATATATATATA [CACACA_site6138] | 9.71 ± 0.19
AAAAAAAAAAAAAACACACACACAAAAAAAAATATA [CACACA_site1104] | 8.22 ± 0.52
ATTATCTCCGCCATGTGGACACATATAAGACATTTT [XGTACX_site2889] | 8.23 ± 0.54
ATTGTATATAAATGAGTGCATACTATGTTGTTCTTA [GTGCAC_site9678] | 8.87 ± 0.25
TATGTAAATCTCTTAAGAATTCGCTATATCTCTTTT [CACACA_negctrl_site1180] | 7.3 ± 0.63
ATATAAGCGTATACATGTACATATATATCTTTGTAA [XGTACX_site2742] | 7.79 ± 0.36
AGGCTACGAATAGAATGTACCCGAAATAAGGAATAT [XGTACX_site6012] | 8.03 ± 0.72
GCAAGGAAATAATTGATAATATATATATATATATAT [GTGCAC_negctrl_site400] | 9.13 ± 0.59
GAGTAAATAAATAAATGTACATATATATATATTATC [XGTACX_site8466] | 7.75 ± 0.44
TATAATAAATATTAACGTACTCATATATATATATAT [XGTACX_site3871] | 9.25 ± 0.27
ATACATAAATATTGATGTACTCATTTAATATATTAT [XGTACX_site3992] | 7.63 ± 0.35
AATATATATATATATATATATTTTTGTTAGAATATG [XGTACX_negctrl_site58] | 8.04 ± 0.18
TTATAATATGGATACACACACATATATAAATATATA [CACACA_site5314] | 7.68 ± 0.38
AAAAAATAAATAAATACACACAAATCTATATTTATA [CACACA_site7243] | 7.35 ± 0.24
ATCTAAATTTTTCCATGTACATATACTTTTATGCAT [XGTACX_site2683] | 8.43 ± 0.59

Sequence | gcPBM binding intensity (ln)
AAAATATGTAGACACATACACACATATATATATATA [CACACA_site1221] | 9.53 ± 0.48
TATATGTATGTTTGTTTGTTTGTATTTTTTAAGGTA [XGTACX_negctrl_site619] | 7.73 ± 0.34
TTTTCTTTTTCCAAAAGTACGTAATTTAAACATTTT [XGTACX_site2066] | 7.83 ± 0.43
TTTTTTTTTTCAAATGCATGCAAAAAAAAAAAAATA [TGCATGCA_site945] | 7.87 ± 0.52
AAATTAGAAATACCTACACACTTATCAAAATAAATT [CACACA_site7132] | 7.47 ± 0.62
ATAATTATGAAGCATACATGCATGTCCTGGCTTAAA [TGCATGCA_site491] | 7.69 ± 0.73
AAATTAAATAAATTTACACACTAAAAATTACAGATA [CACACA_site4722] | 7.64 ± 0.47
CATTATGTCGTAAATACACACATACAGATACATACA [CACACA_site4880] | 7.89 ± 0.43
TTTTTATTTGGTTGTGTACACATATATATATATATA [CACACA_site5844] | 9.46 ± 0.25
AAAAAACACCCACATACACACAAAAATGTTATAAAT [CACACA_site81] | 7.86 ± 0.59
GTTATATATAATAATTGTACAAAATTAAATATAACT [XGTACX_site4189] | 7.63 ± 0.4
CTAAGAAAAAATAAAGCACACAAATATTTTAAAAAC [CACACA_site9094] | 9.475 ± 0.064
AAAACACAAAAAAAATGTACACATATATATATATAT [XGTACX_site8509] | 9.32 ± 0.12
TAACTATATTTTTACTGTACAAAAAAATTAAATAAT [XGTACX_site1765] | 7.84 ± 0.37
ATATTAATTCTACATTGTACACATGAAAAAATATAA [XGTACX_site8759] | 8.04 ± 0.3
CAATCTTTTACGAATACACACACATAAAGAAAAAAA [CACACA_site8367] | 7.91 ± 0.61
AATTTTTTATATGTCACACATTTGTTATTATTATTA [CACACA_site4197] | 7.9 ± 0.62
TTAAATAAATAAAAATGTACATGCATATATAAATAT [XGTACX_site8908] | 7.88 ± 0.81
AAAAAGAATAAATAAATATAAATAAATAAATATATA [GTGCAC_negctrl_site336] | 7.2 ± 0.28
ACATATAGAAGTATCTATAAACAGTGATAGCATTTT [CACACA_negctrl_site1122] | 7.54 ± 0.55
AAAAAAAAATGTCATGGTACACAATTTTTTCTTTTT [XGTACX_site4505] | 7.4 ± 0.55
TAAAGTAAAACAAGGTAAGGTTTTTCTTTTTCTTTT [CACACA_negctrl_site1271] | 7.26 ± 0.57
AATAAATTATGAACGGTGCAGGAAAAATTGTAACAT | 9.67 ± 0.47

Sequence | gcPBM binding intensity (ln)
TAGATTATTTTATTTAGTACATAAAAAAGTAAGACC [XGTACX_site7889] | 8.11 ± 0.4
TGAAGTGCAAAATACTGTACGTAATGTGCTTGTTAC [XGTACX_site4512] | 10.1 ± 0.38
AAACATAAGGGACACACACACATATATATATATATA [CACACA_site5920] | 9.2 ± 0.28
CAAAAAAACAAACACACACACACACCGATATATATA [CACACA_site9218] | 8.21 ± 0.56
ATCACTTGAGAATAATTACATTAATATATATTTATG [TGCATGCA_negctrl_site581] | 7.33 ± 0.52
CTTTTTAATTAATACACACACACACCCATATATATA [CACACA_site2292] | 8.45 ± 0.54
GGGAAAGAACCATATACATGCATATTTACCGTTAAA [TGCATGCA_site519] | 7.81 ± 0.68
CATATACATACACATACACACATACAGACATACACA [CACACA_site6919] | 8.12 ± 0.3
TGAAATTTTATTAATGTGCACATATATTTATTGTTC | 9.77 ± 0.26
GTAAAAAAAAAAAAATGTACACATATATATAATATA [XGTACX_site159] | 7.67 ± 0.35
TTTTTTTTTTTTAATACACACATATATATATTTATT [CACACA_site3994] | 8.21 ± 0.64
AACATAATTAAAAATTGTACAGAATTTCAATCGAAA [XGTACX_site7542] | 7.52 ± 0.47
ATAAAAATGTATATATGTACATATATATATATATAT [XGTACX_site1505] | 9.64 ± 0.24
ATTGTCTTTTAATAGTGTACTTATTTTAAATATTGC [XGTACX_site8517] | 8.2 ± 0.37
TTTCTAATATATAAAGTGCAATACCATTCAGAGTTA | 10.4 ± 0.51
AAGAAAATAAAATAAAATAAAATAAAATAAAAATAT [TGCATGCA_negctrl_site493] | 7.7 ± 0.57
TATAATTTATAAGTAGTGCATTTCTTTTCATTTTTA | 10.3 ± 0.3
TTTTATAGAGTGTATACATGCAATACCACATAAAAT [TGCATGCA_site476] | 8.07 ± 0.66
ATATGGAAGAATTAAAGTACTTAAAAAAATGTCAGT [XGTACX_site6837] | 8.34 ± 0.64
TTATTATATATAAGTAGTACAAACAATTAAGAGATA [XGTACX_site4009] | 8.31 ± 0.092
TGATGATATAAAAACACACACATATAACATAATACT [CACACA_site6687] | 7.83 ± 0.67
TTTCTTTCTATTGTTATATTTATAATAATTATAATT [XGTACX_negctrl_site215] | 7.54 ± 0.59
TATAAAATTACATTTTGTCATTTATTTTTTCCCACT [TGCATGCA_negctrl_site110] | 7.5 ± 0.28

Sequence | gcPBM binding intensity (ln)
TGTTTAAGTGTTTTTAGTACTTATAAAAATATTATC [XGTACX_site7379] | 7.8 ± 0.28
ATATTATCCCTATTTGCACACAAGAGTAATTTTTTA [CACACA_site3908] | 9.805 ± 0.049
CCTATAAAACCATATACACACATATATATAAAAAAA [CACACA_site4013] | 7.74 ± 0.44
TGTTTCTAAAAATTTACACACAAAATATTTCTACAT [CACACA_site4098] | 7.62 ± 0.56
TTATACGATAATATGACACACAATACAAAAATGTAA [CACACA_site1918] | 7.78 ± 0.42
AAATAAAATATTACATGTACATGTTCATAAAAAAAA [XGTACX_site1067] | 7.71 ± 0.42
ATAAATTAATGGAGAAATCTTATGAATTTATTTTAA [CACACA_negctrl_site1068] | 7.13 ± 0.67
TATTGTAGTCATGCACGTACAAAAGGAAAGTTAAAA [XGTACX_site4446] | 10 ± 0.73
AATATATACATATATACACACACATATATTATATAT [CACACA_site7980] | 7.83 ± 0.44
TAAATATAAGTGTACATACACACTTTACAATCTCAT [CACACA_site3006] | 7.88 ± 0.2
AATAAAAAGGAACACACACACACACCGATATATATA [CACACA_site5895] | 8.27 ± 0.73
TACATACACAGACACACACACATATATATATATATA [CACACA_site3557] | 9.34 ± 0.73
AAAGAAGAAAAATATAGTACAGGGCACATGTCCTGT [XGTACX_site6293] | 7.76 ± 0.74
AAAAAAAAAAAAATTGCATGTAAATGAAATAATAAA [TGCATGCA_site116] | 7.5 ± 0.47
TTATTTTTATATTTCACACACATATACTTTTACATA [CACACA_site4097] | 7.96 ± 0.49
ATTTAAATTTAAAAAACACACATAATATGATATATA [CACACA_site1973] | 7.6 ± 0.37
CAATTTTACTCATAAACACACATATATATGTTATTA [CACACA_site3152] | 7.66 ± 0.53
ATATGTGTTAAAAATGCACACAAAAAAATATACATA [CACACA_site7988] | 8.635 ± 0.078
CTTATTTTATTCGAATGTACATAATTGTTAGACATT [XGTACX_site8583] | 7.77 ± 0.42
TTTTACAAATGTTTTACACACACATAATTGTATCAA [CACACA_site4166] | 7.82 ± 0.61

— the supplement of paper PMC11417369
